# The list shows a part of the results.
# System: PF3D7_0420300 AP2 domain 1 (GST-tagged)
# Experiment: gcPBM binding intensity (ln(normalized median fluorescence intensity)); higher = stronger DNA binding
# In short: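 Each value is the highest Masliner-normalised natural-log median intensity across replicate spots of either orientation of a probe. The probes were primer-extended double-stranded 36-bp intergenic genomic sequences on an Agilent 4 × 180k array, alongside negative controls, exposed for 1 h to GST-tagged P. falciparum DNA-binding domains expressed in E. coli. Bound protein was picked up with Alexa488 anti-GST antibody and scanned at 488 nm.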
row,Sequence,gcPBM binding intensity (ln)
1,GAAAATATTTCTATCTGTACTTATTTATATATATAT [XGTACX_site7317],9.34
2,TTGTCACTAATAGATGCATGCAATCATTCCATTTTT [TGCATGCA_site938],9.23
3,TTATGTCGTAAATACACACATACATATACATACACA [CACACA_site1374],9.57
4,TTGTAATGATATATTTGTACTTAATATAATTGTATA [XGTACX_site2748],9.09
5,AATAAATTGAAACACACACACACATATATATATATA [CACACA_site848],10
6,TAACAAAACATAGATTGTACATATTATAAATGTATA [XGTACX_site1543],9.26
7,GTTACATACCTATACACACACATATATAAATAAATA [CACACA_site6549],9.89
8,ATATAAAAATACAGGTGTACATTTTTTCATATTTAT [XGTACX_site6959],9.31
9,TATTCTTATCTTACCACACACAATGTACGAAAAGAT [CACACA_site6296],9.44
10,CAAAATATACACACGTGTACACAAATATTTACAAAA [XGTACX_site2257],9.47
11,CAATATTATATTACTTGTACACATATGTAGTTTCGA [XGTACX_site8945],9.18
12,TTTCCCATAGGAAAAACACACATATATTATATATAA [CACACA_site1981],9.12
13,TTTTTTGTTAAACCGGTGCATATAAATATATATATA [GTGCAC_site9989],9.12
14,TAATTATTACACGGTATTATATATAATATGTTAAAA [GTGCAC_negctrl_site134],9.02
15,ATCATTTTTTATGCGTGTACATAAATTTATTAGGTT [XGTACX_site2786],9.53
16,CACAAAAAAGTTCATACACACAACATATTTATATAT [CACACA_site2887],9.75
17,TTTTTTTTTTTTCTGTGTACATATATAATATATATA [XGTACX_site1592],9.35
18,ATATCTATATTTTAAAGTACGTAGTAAAAAGAAAAA [XGTACX_site4323],9.18
19,TTTTATGAAAAGATGAGTACACAATACTTTTTAATT [XGTACX_site8253],8.99
20,AAAAAAAAAAAAAGATGTACATATATTTTTATTATA [XGTACX_site654],9.02
21,AAGGATATAAAAAAACGTACGTACGATAATATAATT [XGTACX_site1292],9.34
22,AACCATTCTTCTAATTGTACATTGAAAAATCATGAT [XGTACX_site3854],9.08

row,Sequence,gcPBM binding intensity (ln)
1,AGTATTTTAATTTCAGTGCATTTTATTCTATAATTA,9.43
2,AAAAAAAAAAAAAATGCATGTGCGTAAATAATAATA [TGCATGCA_site793],9.38
3,AAGTTTTCTTACAGATGTACTTTTTAAAAATAAACT [XGTACX_site6632],9.11
4,TTTAGGAAAGGCGGCACACATTTATATATTTATTTA [CACACA_site5931],9.22
5,ATATATATCTATATTTGTACATATTACATTCAAGTT [XGTACX_site1749],9.27
6,TTTTTTTTTTCTTGTTGTACTTTTAATAATTCATAT [XGTACX_site4704],9.44
7,GAAATTTTTAAAAAGGTGCTTTTAACAAAAATTATT [GTGCAC_site9687],8.91
8,TTATTAAAAAAAATATGTACTCACAATATAATATAT [XGTACX_site3738],9.14
9,TATATATATATAACATGTACATAAAATACATTTATA [XGTACX_site7370],9.06
10,ACCATCCTTAATACTTATTTTTTCACAATTAAGTAA [GTGCAC_negctrl_site269],9.3
11,TTAGCAACTATTACTACACACATTTGTATATAATTT [CACACA_site1591],9.64
12,TTTATAATATACATAACACACAATTATTATTTCTTA [CACACA_site3624],9.26
13,TTATAACAAATATAGAGTACTAAAATTTTACGTTAT [XGTACX_site1410],9.21
14,TTTTTTTCCTTATCTATATATAATCAAATTTTCTAC [CACACA_negctrl_site867],9.05
15,AACTTTTAGAAGAACACACACATATAGATTATGACC [CACACA_site6256],9.86
16,TCGAACATTAACATAACACACATATATATATATATA [CACACA_site2900],9.42
17,AAGGTTATTTATATATGTACTTAATATATATATATG [XGTACX_site886],9.31
18,TTTTATCGATATATCTGTACATATTACTTATAATAA [XGTACX_site57],9.29
19,TGCTATAATTTATATACACACAAATATATACTCATA [CACACA_site6111],9.47
20,TATAACTATTTATAATGTACTCATGTATAATTATAT [XGTACX_site7913],9.1
21,TTAATTTATTTATGCACACATATATAATTACACATA [CACACA_site4544],9.36
22,TTTATATATTATATAAATATTATTATACTTTAAATA [TGCATGCA_negctrl_site236],8.73

row,Sequence,gcPBM binding intensity (ln)
1,ATGCTTTTGTCATGTGCACACACGTATATATTATAT [CACACA_site4163],9.89
2,ACATGTATTTATAAGAGTACATATGTGTGCATGTTT [XGTACX_site7946],9.49
3,AATAAATAAATATATACACACATATCTGTCTACATA [CACACA_site5708],9.54
4,ACAAGATCTAGATACACACACATATCTCTCAATCTA [CACACA_site6453],9.7
5,GTAAAAAAATAGCACACACACAAAAACACGCACAAA [CACACA_site6723],10.2
6,GGGACAGGACGAAAAAATAAATAAATAAATAAAAAA [CACACA_negctrl_site155],8.89
7,AATAATTGAAAAACACAAAAATGATTTTCCATAAAT [CACACA_negctrl_site1555],9.09
8,ATATATTATATAATATGTACATAATAAAATTTAAAT [XGTACX_site1900],9.26
9,TTTTTATTTATATATATATATATATATTATATATAA [CACACA_negctrl_site1654],8.97
10,CTTGTCATTGGGCACACACACATGTATAGGTTATTA [CACACA_site3058],9.7
11,GAGTAAACATATATATGTACATAAAGTTAACATTGC [XGTACX_site2225],9.45
12,ATTTTTTTTCATATAACACACACACTAATATAATGT [CACACA_site9226],9.88
13,TGAACACCCACAAATACACACAAAAAAAATAAATAA [CACACA_site248],9.68
14,CTTATAAAAAAAAAAACATGCAACAGTAAAGAACAA [TGCATGCA_site892],9.84
15,AAAAAAATAAGTATTGAACAATTAAGGAAAAACATG [GTGCAC_negctrl_site464],9.59
16,AACATACATAAACACACACACACACCCACAGAGACA [CACACA_site4430],10.4
17,GGTAATTTTTTTTAAATACACACTGAAATGTGAATT [CACACA_site564],9.1
18,CATACAGATATATATACACACATACAGATAAATACA [CACACA_site4592],9.83
19,AATTGAATTTTAAAAGAAAAAAAAAAAAAAAAATAA [XGTACX_negctrl_site195],8.76
20,TGGAGGTCAGTTCACAGTACCCAGAAACTCTACGGA [XGTACX_site4927],8.97
21,TTTTTTCAATTTTTTTTAAATAAACCACAAAAAAAA [CACACA_negctrl_site1701],8.72
22,TAATGTAAAATTTAGAGTACATAAAAAATTGGATGA [XGTACX_site7225],9.24

row,Sequence,gcPBM binding intensity (ln)
1,AAATAAAAAAAGAAACGTACATATATTGGTTTCGTC [XGTACX_site3510],9.43
2,AAACTATAATATATTACACACATATATTTTATAAGT [CACACA_site6460],9.55
3,AAATTATATCAATGTTGTACATATTATTTTTTTCTC [XGTACX_site5948],9.36
4,AAAAAAAAAAATATCACACACACATAAATATAAACC [CACACA_site2278],10.2
5,TAGTATAAAATTATGTGTACACAAATATAACTTTTC [XGTACX_site5971],9.22
6,AAAAAAAAAAAAAGGTGTACAAGTATAATTACATAA [XGTACX_site534],9.37
7,TATTTATTGTGATACTTTTATTGTTTAATGATTAAA [CACACA_negctrl_site495],9.18
8,AAGATTAAAAATTGCACACAAAAATATATTTTCTAT [CACACA_site1305],9.31
9,AAATTATATCATTTATTTTTTTATATTTTTTATATT [CACACA_negctrl_site685],9.12
10,AATTTCCTTTTTTAAAGTACACAAAAGTTCACTTTG [XGTACX_site4460],8.9
11,TATAATTTATTAAGGGGTACATATATTTCATGATAA [XGTACX_site5141],9.17
12,CAAATATAAATATATACATGCATCTATCTATATAAA [TGCATGCA_site369],9.19
13,AATCAAAAATCAAACGCATGTAGTATAATAGATAAG [TGCATGCA_site753],9.5
14,AAATTGTAGCACCAAGCATGCTAAAAGGACATATGA [TGCATGCA_site717],9.34
15,TTGTTAAAAGTATCCATTCTTTATTACTTTTGTTTA [XGTACX_negctrl_site532],9.22
16,TCGTAAACATATTGAAAAATATAAAAAGGGGTAATA [CACACA_negctrl_site619],9.29
17,ATTGGGTACAAATACACACACATATATATATTAATA [CACACA_site2376],9.92
18,TGTACCTTATTAATATATTTAACTCGCCTTATATAC [XGTACX_negctrl_site289],9.47
19,TTAAGATATGTATATCGTACATGACATTAAAAATTT [XGTACX_site3352],8.94
20,AATGGTATAATCAATACACACATAATATATATATTG [CACACA_site1658],9.47
21,AAATAAATACACATATGTACATATTTTATTTTATTT [XGTACX_site2357],9.29
22,TAAAAAAAATACAAAAGTACACAAAATTATACGTTA [XGTACX_site4656],9.42
